The supplement of paper PMC10126150
Values marked as one replicate rest on one cluster of the flow cell; about a third of the high ones do not repeat.

tested on: ATP; assay: switch fluorescence ratio, 500 uM ATP over buffer (Cy3 cluster intensity, sum of 5 cycles each) (fold (ratio)); higher = stronger signal-on switching upon ATP binding; sequences stand for … in TCGTCGGCAGCGTCAGATGTGTATAAGAGACAGTTTTTTTTTTTTTTTTTTTTTTTTT…TC; settings: aptamer strand: ATP DNA aptamer (quencher-CACCTGGGGGAGTATTGCGGAGGAAGG + anchor), 100 nM annealed; ATP concentration: 500 uM; one replicate
Procedure, shortened: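 Cy3-labelled switching-strand clusters on a modified Illumina MiSeq flow-cell were annealed to 100 nM quencher-labelled ATP aptamer, imaged in selection buffer, then imaged after 15 min with 500 uM ATP at 22 °C. Five buffer/ATP cycles ran, with NaOH stripping and re-annealing between them. The fluorescence ratio is summed target-cycle over summed buffer-cycle Cy3 intensity per cluster, averaged per switch-domain sequence. Clusters outside 100-1000 RFU were excluded.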
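Also: ATP exposure 15 min at 22 °C before imaging.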

Q: For CGGGGGCCGC, which switch fluorescence ratio is on record?
A: 0.961

Q: With AGCACCAGGC as the sequence, how does the switch fluorescence ratio read?
A: 1.01

Q: ACATGATTCA was tested. Which switch fluorescence ratio did it give?
A: 1

Q: With GCGCTACAAT as the sequence, how does the switch fluorescence ratio read?
A: 1.03

Q: CGCCATGTCG was tested. Which switch fluorescence ratio did it give?
A: 1

Q: For AGCTAGCCAA, which switch fluorescence ratio is on record?
A: 1.02

Q: AAATTTCTA was tested. Which switch fluorescence ratio did it give?
A: 0.993

Q: Which switch fluorescence ratio does the source give for AGCTGTGC here?
A: 1.07

Q: For AGGGGATTG, which switch fluorescence ratio is on record?
A: 0.975

Q: How did the switch fluorescence ratio turn out when ATTATACGAA was run?
A: 1.04

Q: Which switch fluorescence ratio does the source give for GCACATGTGG here?
A: 0.965

Q: For ATTGGCTCCG, which switch fluorescence ratio is on record?
A: 1.1

Q: For CAAAAAATCA, which switch fluorescence ratio is on record?
A: 1.02

Q: Which switch fluorescence ratio does the source give for AAGCTTGCGT here?
A: 1

Q: With AACTGGAAGT as the sequence, how does the switch fluorescence ratio read?
A: 1.02

Q: With ATTTAATACC as the sequence, how does the switch fluorescence ratio read?
A: 1.02

Q: How did the switch fluorescence ratio turn out when AGGAATACGG was run?
A: 1.29

Q: For AATAGTGGCG, which switch fluorescence ratio is on record?
A: 0.964

Q: AGCGGGACAT was tested. Which switch fluorescence ratio did it give?
A: 0.99

Q: TCTTCTGGGG was tested. Which switch fluorescence ratio did it give?
A: 1.09

Q: With GCGACTTTGT as the sequence, how does the switch fluorescence ratio read?
A: 0.974

Q: TTAAATACCC was tested. Which switch fluorescence ratio did it give?
A: 2.81

Q: How did the switch fluorescence ratio turn out when TGGCGTAATG was run?
A: 0.949

Q: For TTAAGTGAGA, which switch fluorescence ratio is on record?
A: 0.959

Q: For TTGGCGGCTG, which switch fluorescence ratio is on record?
A: 1.02

Q: For AGTAAGTTC, which switch fluorescence ratio is on record?
A: 1.07

Q: Which switch fluorescence ratio does the source give for ACAAGGGTTT here?
A: 0.982

Q: For AAGTTAAAGA, which switch fluorescence ratio is on record?
A: 1.07

Q: ACATCCTCGC was tested. Which switch fluorescence ratio did it give?
A: 1.72

Q: With AGTCAGCGAG as the sequence, how does the switch fluorescence ratio read?
A: 1.05

Q: How did the switch fluorescence ratio turn out when ACGCCCGGGC was run?
A: 1.01

Q: With AAGCCTTTTA as the sequence, how does the switch fluorescence ratio read?
A: 0.995

Q: How did the switch fluorescence ratio turn out when GACAGATGAG was run?
A: 0.967

Q: With TTTACCTCG as the sequence, how does the switch fluorescence ratio read?
A: 1.15

Q: For GGTTGAATCG, which switch fluorescence ratio is on record?
A: 0.982

Q: How did the switch fluorescence ratio turn out when GATGGAATTG was run?
A: 0.986

Q: With CTCTCGTTGG as the sequence, how does the switch fluorescence ratio read?
A: 0.943

Q: For TCAGAGCGCC, which switch fluorescence ratio is on record?
A: 1.03

Q: For GAACGTCGAA, which switch fluorescence ratio is on record?
A: 0.974

Q: With TTGAGACGCC as the sequence, how does the switch fluorescence ratio read?
A: 1.08

Q: How did the switch fluorescence ratio turn out when GAACATGCTA was run?
A: 1.02

Q: For TCCGTTGCTT, which switch fluorescence ratio is on record?
A: 1.32

Q: How did the switch fluorescence ratio turn out when CCACTAGCTC was run?
A: 1.4

Q: How did the switch fluorescence ratio turn out when CGCGTCGTCA was run?
A: 0.973

Q: For TGAAAACCTG, which switch fluorescence ratio is on record?
A: 1.01

Q: With GAATCGATGT as the sequence, how does the switch fluorescence ratio read?
A: 1.05

Q: For ACGATTATAA, which switch fluorescence ratio is on record?
A: 0.96

Q: With GTATAGCAG as the sequence, how does the switch fluorescence ratio read?
A: 0.992

Q: ATCAGTCGCT was tested. Which switch fluorescence ratio did it give?
A: 0.973

Q: Which switch fluorescence ratio does the source give for TTATAACGCG here?
A: 1.02

Q: How did the switch fluorescence ratio turn out when TATCTGTGGG was run?
A: 0.985

Q: Which switch fluorescence ratio does the source give for AAGGGGGCTC here?
A: 1.07

Q: For GAATTTTTT, which switch fluorescence ratio is on record?
A: 1.03

Q: How did the switch fluorescence ratio turn out when CGGCGCGTGT was run?
A: 0.935

Q: How did the switch fluorescence ratio turn out when CGGTACGGTC was run?
A: 0.86

Q: TAACCGCGG was tested. Which switch fluorescence ratio did it give?
A: 0.951

Q: How did the switch fluorescence ratio turn out when TAGCCGCCTC was run?
A: 1.21

Q: How did the switch fluorescence ratio turn out when GAGTGTAGGG was run?
A: 0.992

Q: How did the switch fluorescence ratio turn out when TTCGGGGTA was run?
A: 1.02

Q: With GGTCTGCAGG as the sequence, how does the switch fluorescence ratio read?
A: 0.983

Q: GCCGTGGTCA was tested. Which switch fluorescence ratio did it give?
A: 1

Q: For TCAAATAGAG, which switch fluorescence ratio is on record?
A: 1.04

Q: For GCTCTCCATT, which switch fluorescence ratio is on record?
A: 1.01

Q: How did the switch fluorescence ratio turn out when ATTAGTGCA was run?
A: 0.995

Q: With AACGTCTTGA as the sequence, how does the switch fluorescence ratio read?
A: 1.07

Q: Which switch fluorescence ratio does the source give for GTTGTAGCAT here?
A: 1

Q: For TTACATCGCA, which switch fluorescence ratio is on record?
A: 1.1

Q: How did the switch fluorescence ratio turn out when ATCAAATAGA was run?
A: 1

Q: How did the switch fluorescence ratio turn out when ACATTCCTAT was run?
A: 1.06

Q: For TTACGTAGCT, which switch fluorescence ratio is on record?
A: 1.5

Q: TTGTGTGCCT was tested. Which switch fluorescence ratio did it give?
A: 1.04

Q: AAGATGAGAG was tested. Which switch fluorescence ratio did it give?
A: 1.05

Q: With AATAGGAGTG as the sequence, how does the switch fluorescence ratio read?
A: 0.989

Q: For CGGTCGAATG, which switch fluorescence ratio is on record?
A: 0.985

Q: AAAACGGATC was tested. Which switch fluorescence ratio did it give?
A: 0.997

Q: Which switch fluorescence ratio does the source give for ATGTTTCCTG here?
A: 0.984

Q: With AATCTAGTC as the sequence, how does the switch fluorescence ratio read?
A: 0.962

Q: TGACTGTGAT was tested. Which switch fluorescence ratio did it give?
A: 1.02

Q: Which switch fluorescence ratio does the source give for TGGGTGCGTA here?
A: 0.945

Q: For TCCGTAATCT, which switch fluorescence ratio is on record?
A: 4.45

Q: Which switch fluorescence ratio does the source give for AATCGTTATG here?
A: 0.989

Q: CGAGAGACGG was tested. Which switch fluorescence ratio did it give?
A: 1

Q: How did the switch fluorescence ratio turn out when GGCTCTCACG was run?
A: 0.99

Q: How did the switch fluorescence ratio turn out when ACAACTTACC was run?
A: 1.2

Q: How did the switch fluorescence ratio turn out when AATGGATCAA was run?
A: 0.985

Q: For CCATTACTGG, which switch fluorescence ratio is on record?
A: 0.998

Q: With CCGCTAATTT as the sequence, how does the switch fluorescence ratio read?
A: 5.19

Q: TAATGCACTT was tested. Which switch fluorescence ratio did it give?
A: 1.05

Q: How did the switch fluorescence ratio turn out when ATCTTACACC was run?
A: 1.13

Q: With ACTGCCGTGT as the sequence, how does the switch fluorescence ratio read?
A: 1.07

Q: With CCCAATTCGG as the sequence, how does the switch fluorescence ratio read?
A: 1.08

Q: Which switch fluorescence ratio does the source give for TATTGAATGC here?
A: 1.05

Q: How did the switch fluorescence ratio turn out when AGCTACGTGT was run?
A: 1.07

Q: Which switch fluorescence ratio does the source give for ACATTTTTT here?
A: 1.03

Q: ATCCAAGGCT was tested. Which switch fluorescence ratio did it give?
A: 1.04

Q: How did the switch fluorescence ratio turn out when TCGGAAAGCG was run?
A: 1.07

Q: How did the switch fluorescence ratio turn out when GATCGCTTTA was run?
A: 1.03

Q: For CGTCTGTTAT, which switch fluorescence ratio is on record?
A: 1.01

Q: How did the switch fluorescence ratio turn out when ATTTTCAAGC was run?
A: 0.945

Q: Which switch fluorescence ratio does the source give for TAAGAAAACC here?
A: 1.61

Q: Which switch fluorescence ratio does the source give for AATGTAGCCG here?
A: 0.962

Q: Which switch fluorescence ratio does the source give for TTCTCCATCA here?
A: 1.01

Q: Which switch fluorescence ratio does the source give for TGGCGTGTGT here?
A: 1.02

Q: ATTTGCAGCT was tested. Which switch fluorescence ratio did it give?
A: 0.976

Q: How did the switch fluorescence ratio turn out when CTGTTGTTAT was run?
A: 0.959

Q: Which switch fluorescence ratio does the source give for AAAGATAGAG here?
A: 1.03

Q: Which switch fluorescence ratio does the source give for GCCCGTACAT here?
A: 0.958

Q: With TATGGTGTGT as the sequence, how does the switch fluorescence ratio read?
A: 0.983

Q: With CGGGACTAGC as the sequence, how does the switch fluorescence ratio read?
A: 0.963

Q: With TCTTGAGTGG as the sequence, how does the switch fluorescence ratio read?
A: 0.991

Q: With ATCTTAGTTC as the sequence, how does the switch fluorescence ratio read?
A: 0.964

Q: How did the switch fluorescence ratio turn out when TTAATCGTCA was run?
A: 0.982

Q: GACCGGAATC was tested. Which switch fluorescence ratio did it give?
A: 2.28

Q: How did the switch fluorescence ratio turn out when AAACCGTCTT was run?
A: 1.05

Q: CAAAGATTC was tested. Which switch fluorescence ratio did it give?
A: 0.957

Q: For TACCGATGTA, which switch fluorescence ratio is on record?
A: 1.08

Q: Which switch fluorescence ratio does the source give for AAACATACG here?
A: 1.31

Q: Which switch fluorescence ratio does the source give for TGGCCTTACC here?
A: 1.25

Q: Which switch fluorescence ratio does the source give for TCTCTGGCAC here?
A: 2.24

Q: CGACATTTTA was tested. Which switch fluorescence ratio did it give?
A: 0.963

Q: With GCAATCTATG as the sequence, how does the switch fluorescence ratio read?
A: 1.05

Q: CTCCACGTTC was tested. Which switch fluorescence ratio did it give?
A: 1.57

Q: With TCTTGTCGG as the sequence, how does the switch fluorescence ratio read?
A: 0.917

Q: GCCGATCTGG was tested. Which switch fluorescence ratio did it give?
A: 0.968

Q: TGACAGTGCC was tested. Which switch fluorescence ratio did it give?
A: 0.985

Q: Which switch fluorescence ratio does the source give for TTGGCCAGAC here?
A: 0.998

Q: Which switch fluorescence ratio does the source give for TGACAAATGG here?
A: 1.01

Q: For CGTTTCACCC, which switch fluorescence ratio is on record?
A: 1.02

Q: With TTCCGAAGA as the sequence, how does the switch fluorescence ratio read?
A: 1.3

Q: How did the switch fluorescence ratio turn out when CAGTATTAAA was run?
A: 1.02

Q: How did the switch fluorescence ratio turn out when AAGATACAGG was run?
A: 1.07

Q: How did the switch fluorescence ratio turn out when ATTCCATGAG was run?
A: 1.01

Q: How did the switch fluorescence ratio turn out when TGGACCTTGC was run?
A: 1.9

Q: CCACTATCTG was tested. Which switch fluorescence ratio did it give?
A: 0.984

Q: Which switch fluorescence ratio does the source give for TAAGGATGTG here?
A: 1.01

Q: Which switch fluorescence ratio does the source give for TAGCGGTGGC here?
A: 1.03

Q: How did the switch fluorescence ratio turn out when TAGATTCCGA was run?
A: 1.01

Q: GGGCATTGAC was tested. Which switch fluorescence ratio did it give?
A: 1.03

Q: TCTATTGCCT was tested. Which switch fluorescence ratio did it give?
A: 1.05

Q: How did the switch fluorescence ratio turn out when GTTTTGCCCA was run?
A: 1

Q: Which switch fluorescence ratio does the source give for ATTTATAGCC here?
A: 0.999

Q: How did the switch fluorescence ratio turn out when AGAAGCGGAC was run?
A: 1.77

Q: How did the switch fluorescence ratio turn out when CTGGAAGGTT was run?
A: 1.01

Q: How did the switch fluorescence ratio turn out when CGTTGTAGCT was run?
A: 1.01

Q: With GGCCGACAAT as the sequence, how does the switch fluorescence ratio read?
A: 1.22

Q: GAGGTTTAAC was tested. Which switch fluorescence ratio did it give?
A: 0.995

Q: How did the switch fluorescence ratio turn out when AGGCGACTAA was run?
A: 0.963

Q: With GCGGCGTGAA as the sequence, how does the switch fluorescence ratio read?
A: 1.01

Q: With TTGTTCTTTC as the sequence, how does the switch fluorescence ratio read?
A: 1.01

Q: With GTAGCCGGTG as the sequence, how does the switch fluorescence ratio read?
A: 1.07

Q: ACCACACATT was tested. Which switch fluorescence ratio did it give?
A: 1.32

Q: How did the switch fluorescence ratio turn out when TGGTAGTGTC was run?
A: 1.02

Q: For AAAGAAGCCT, which switch fluorescence ratio is on record?
A: 1.16

Q: TTCGGAGTAG was tested. Which switch fluorescence ratio did it give?
A: 0.949

Q: With TTAAGCCAAC as the sequence, how does the switch fluorescence ratio read?
A: 1.08

Q: Which switch fluorescence ratio does the source give for ATCAGTGCTA here?
A: 0.994

Q: AATCATTCTG was tested. Which switch fluorescence ratio did it give?
A: 0.971
